Assay results reported in PubChem BioAssay AID504706 (National Center for Advancing Translational Sciences (NCATS), 2011).
Out of some 320,000 compounds screened, about 200 (0.062%) were called active. Inconclusive means that the source gave no clear call. Such entries were picked first, then a sample of the others. Calls follow the shape of the dose curve; as a rule, active = well fitted activation curve with a large enough effect; inconclusive = small, poorly fitted or top-dose-only effect; inactive = no such curve, though single readings can be large or run the other way. Potencies of inconclusive entries are left out as doubtful fits.

Experiment: qHTS assay for re-activators of p53 using a Luc reporter; also: nearly all actives have a fitted effect of over 45% in size
Conditions: H1299 p53-A138V BP100-luciferase reporter, luminescence, 24 h; series mostly up to 92.2 µM
Procedure, shortened: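 p53-null H1299 cells stably carrying temperature-sensitive p53-A138V and a BP100-luciferase reporter were pinned with compounds (4-point, 1:5 series) and held 24 hrs at 37 deg C. Luminescence was read 10 min after detection reagent.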
Potency is read from the fitted curve at half-maximal effect; tags tell the direction and shape of the fitted curve.

| Structure (SMILES) | Potency |
| --- | --- |
| O=C(NC1CCCC1)C(c1ccccc1F)N(C(=O)c1csnn1)c1ccccc1 (centres undefined) | inactive |
| COc1ccc(C(=O)Nc2cc(C(C)=O)c(C)oc2=O)cc1 | inconclusive [activator, single point] |
| O=C(CN1C(=O)S/C(=C\C=C\c2ccccc2)C1=O)Nc1cccc(O)c1 | inconclusive [activator, full curve, poor fit] |
| Cc1cc(N)n2nc(-c3ccccc3)cc2n1 | inconclusive [activator, full curve, poor fit] |
| Cc1cc(NC(=O)c2ccc([N+](=O)[O-])o2)ccc1NC(=O)c1ccco1 | inactive |
| Cc1ccc(C)c(NC(=O)COc2cccc3c2CCN(Cc2ccccc2)C3=O)c1 | inconclusive [activator, single point] |
| Cc1ccc(-c2csc(NC(=O)COC(=O)c3cccc(S(=O)(=O)N4CCOCC4)c3)n2)cc1 | inconclusive [activator, partial curve, poor fit] |
| Cc1ccc(C(=O)CC(=O)c2ccccc2C)c(O)c1 | inconclusive [activator, full curve, poor fit] |
| Fc1ccc(-c2nc3c(Cl)cc(C(F)(F)F)cn3c2Cl)cc1 | inconclusive [activator, full curve, poor fit] |
| COc1cc2c(cc1OC)CN(c1nc(CN3CCCC3)nc3sc(C)c(C)c13)CC2 | inconclusive [activator, single point] |
| Cc1ccc(S(=O)(=O)c2c(C)cc(C)nc2Cl)c(C)c1 | inactive |
| CCCc1ccc(OCc2nc(-c3ccc(NC(=O)c4cccs4)cc3)no2)cc1 | inconclusive [activator, partial curve, poor fit] |
| COc1cc(/C=C(\C#N)c2nc3c(s2)CCCC3)ccc1O | inconclusive [activator, partial curve] |
| Cc1ccc(OCC(=O)Nc2cccc(C)n2)c(C)c1 | inconclusive [activator, partial curve, poor fit] |
| Cc1ccc2nc3n(c(=O)c2c1)CCCCC3 | inconclusive [activator, partial curve, poor fit] |
| COc1ccc(C(=O)OCC(=O)c2ccc(Br)s2)c(OC)c1 | inactive |
| CC(=O)c1cccc(OCc2cc(C(=O)NC3CCN(Cc4ccccc4)CC3)no2)c1 | inconclusive [activator, single point] |
| COC(=O)c1sc(-c2ccc(C(C)(C)C)cc2)cc1NC(=O)COCC(=O)O | inactive |
| COc1ccc(C2N(Cc3ccccc3)CC(=O)N2/N=C(\C)c2ccccc2)cc1 (centres undefined) | inactive |
| Cc1cnc(NC(=O)Cc2ccccc2Cl)s1 | inactive |
| O=C(/C=C/c1ccc(OC(F)F)cc1)OCC(=O)N1CCN(C(=O)c2ccco2)CC1 | inactive |
| COc1cc([N+](=O)[O-])ccc1NC(=S)NNC(=O)c1ccc2c(c1)OCO2 | inactive |
| CS(=O)(=O)N1N=C(c2ccco2)CC1c1ccc(Cl)cc1 (centres undefined) | inconclusive [activator, single point] |

| Structure (SMILES) | Potency |
| --- | --- |
| COc1cccc(N2CC(C(=O)Nc3nnc(SCC(=O)Nc4ccc(NC(C)=O)cc4)s3)CC2=O)c1 (centres undefined) | inactive |
| O=C(Nc1nc(-c2ccccn2)cs1)c1ccc(F)c(S(=O)(=O)N2CCOCC2)c1 | inconclusive [activator, single point] |
| CCc1noc(C)c1C(=O)N(C)CC(=O)Nc1cccc(OC)c1 | inactive |
| c1ccc(-c2noc(-c3ccncc3)n2)nc1 | inactive |
| COc1cccc(NC(=O)COc2ccc(C)cc2)c1 | inconclusive [activator, full curve, poor fit] |
| CCc1ccc(C(=O)COC(=O)c2cccnc2Cl)cc1 | inconclusive [activator, partial curve, poor fit] |
| O=C1C2C(c3cccc(/C=C/c4ccccc4)c3)CC=CC2C(c2ccc(C(F)(F)F)cc2)N1Cc1ccccc1 (centres undefined) | inconclusive [activator, partial curve, poor fit] |
| O=C(CSc1nc(Nc2ccccc2)nc(N2CCOCC2)n1)N1CCc2ccccc21 | inactive |
| c1ccc(Cc2cc(-c3ccccc3)on2)cc1 | inconclusive [activator, partial curve, poor fit] |
| Cc1nn(Cc2c(F)c(F)c(F)c(F)c2F)c(C)c1NC(=O)c1ccc(COc2cc(Cl)ccc2Cl)cc1 | inconclusive [activator, partial curve, poor fit] |
| O=C(Cc1cccs1)NCc1ccc2c(c1)OCO2 | inconclusive [activator, single point] |
| COC(=O)/C(=C1\Oc2ccc(C(C)(C)C)cc2S1)C(F)(F)F | inconclusive [activator, full curve, poor fit] |
| COc1ccc(-c2cc(C(=O)N3CCCCCC3)no2)cc1 | inconclusive [activator, full curve, poor fit] |
| COc1ccc2cc(C(=O)N3CCN(C)CC3)[nH]c2c1 | inconclusive [activator, partial curve, poor fit] |
| Cc1cccc(Cn2nnc3c2C(=O)c2ccccc2C3=O)c1 | inconclusive [activator, partial curve, poor fit] |
| C/C(=N\NC(=O)c1ccoc1C)c1ccccc1O | inconclusive [activator, partial curve, poor fit] |
| Cc1ccc(C)n1-c1ccccc1N | inconclusive [activator, partial curve, poor fit] |
| O=C(Nc1ccc2c(c1)OCO2)c1cnc(Cl)c(Cl)c1 | inconclusive [activator, partial curve, poor fit] |
| Cc1ccc(-n2[nH]c(C)c(C=Nc3ccc(S(=O)(=O)Nc4nccs4)cc3)c2=O)c(C)c1 | inactive |
| Cc1cc(-c2cc(-c3ccc(Cl)cc3)on2)nc(NC2CCCC2)n1 | inconclusive [activator, single point] |
| O=C(COCc1cc(-c2ccc3c(c2)OCO3)on1)N1CCN(c2cccc(C(F)(F)F)c2)CC1 | inconclusive [activator, single point] |
| O=C(Nc1nc2ccc(Cl)cc2s1)C1CCCO1 (centres undefined) | inconclusive [activator, partial curve, poor fit] |
| CCOC(=O)NC1(Nc2cccc(Cl)c2)Oc2ccccc2O1 | inconclusive [activator, partial curve, poor fit] |

| Structure (SMILES) | Potency |
| --- | --- |
| Fc1ccc(N2N=C(c3cccs3)CC2c2ccccc2)cc1 (centres undefined) | inactive |
| O=C(Nc1ccnn1C1CCN(C2CCCC2)CC1)c1ccccc1 | inconclusive [activator, partial curve] |
| CN1c2ccccc2C(=O)NC1c1ccc([N+](=O)[O-])s1 (centres undefined) | inactive |
| O=C(Cn1ccc([N+](=O)[O-])n1)N1CCCc2ccccc21 | inconclusive [activator, full curve, poor fit] |
| CC1CC1C(=O)Nc1nc(-c2cccs2)c(-c2cccs2)s1 (centres undefined) | inactive |
| N#Cc1cnc2sc3ccccc3n2c1=N | inconclusive [activator, partial curve, poor fit] |
| Cc1ccc(S(=O)(=O)N(C)c2ccc(C(=O)N3CCN(Cc4ccc5c(c4)OCO5)CC3)cc2)cc1 | inconclusive [activator, single point] |
| Cc1ccc2c(c1)sc1nc(=O)n(-c3cccc(Cl)c3)c(=O)n12 | inconclusive [activator, partial curve, poor fit] |
| Cc1c(/C=N/NC(=O)c2cc(=O)[nH]c(=O)[nH]2)c2ccccn2c1C(=O)c1ccccc1 | inactive |
| Cc1cccc(-n2c(SCc3ccc([N+](=O)[O-])cc3)nnc2-c2c[nH]c3ccccc23)c1 | inactive |
| COc1ccc(C2=NN(c3nc(-c4ccccc4)c(CC(=O)O)s3)C(c3ccco3)C2)cc1 (centres undefined) | inconclusive [activator, partial curve, poor fit] |
| COC(=O)c1cccc(NC(=O)c2ccc(OC)c(Cl)c2)c1 | inactive |
| CSc1nc(-c2ccc(Cl)cc2)nn1C(=O)c1ccccc1 | inconclusive [activator, partial curve, poor fit] |
| O=C(COc1ccc(Cl)cc1)Nc1ccc(Cl)cn1 | inconclusive [activator, partial curve, poor fit] |
| CCOc1ccc(S(=O)(=O)Nc2nc3ccc(OC)cc3s2)cc1 | inactive |
| c1ccc(-c2noc(-c3ccc4ccccc4c3)n2)cc1 | inconclusive [activator, single point] |
| Cc1cc(SCCOc2ccccc2)nc(N)n1 | inconclusive [activator, partial curve, poor fit] |
| O=S1(=O)N=C(Nc2ccc(N3CCOCC3)c(Cl)c2)c2ccccc21 | inactive |
| O=C(Nc1ccccc1C(=O)O)c1ncn[nH]1 | inactive |
| Oc1[nH]c2ccccc2c1N=Nc1cccc(Cl)c1 | inconclusive [activator, full curve, poor fit] |
| CC(Sc1ncnc2ccccc12)C(=O)Nc1ccc2c(c1)OCCO2 (centres undefined) | inconclusive [activator, single point] |
| CCOC(=O)Cc1csc(N/N=C/c2cccc([N+](=O)[O-])c2)n1 | inactive |
| COc1ccc(C(=O)OCC(=O)Nc2ccc([N+](=O)[O-])cc2OC)c(O)c1 | inactive |
